Measured values as given in the supplement of paper PMC11417369.
This is one part of the list.

test system: PfHDP1 homeodomain (GST-tagged); experiment: gcPBM binding intensity (ln(normalized median fluorescence intensity)); higher = stronger DNA binding
Procedure, shortened: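 Plasmodium falciparum DNA-binding domains carrying a GST tag were expressed in E. coli and applied for 1 h, at about 25 μg on average, to an Agilent 4 × 180k array. The array held primer-extended double-stranded 36-bp intergenic genomic probes together with negative controls, and binding took place in 1× PBS with 1% milk, 0.2 mg/ml BSA, 0.5% salmon testes DNA and 0.03% Triton X-100. An Alexa488 anti-GST antibody detected bound protein, and the array was scanned at 488 nm. Binding intensity is taken as the highest Masliner-normalised natural-log median intensity across replicate spots of either probe orientation.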

Compared with “TGATACGTATTTATTTCACACACGTTAAAAAAATAA [CACACA_site3914]”, “TAATTTTTTAAATTTAAACACACATTTTGTATATGT [CACACA_site8479]” is higher in “gcPBM binding intensity (ln)” value: 6.14 for the first, 6.69 for the second.

Compared with “TATATATATATTTTTGGTACAGATATTTTCTTCTCT [XGTACX_site4432]”, “TTACAACCATAAAATGCATGTAAATGACAAAAAAAA [TGCATGCA_site944]” is lower in “gcPBM binding intensity (ln)” value: 8.32 for the first, 6.35 for the second.

Going from “AATATATATATATATTGTACACACATTTATGCATAT [XGTACX_site6856]” to “TAAATACAGACATACACACATACACCCACATATATA [CACACA_site547]”, the “gcPBM binding intensity (ln)” value falls from 7.14 to 6.88.

First: ATTAAAATGGAGTATTAATATGATATATATATATAT [GTGCAC_negctrl_site509]
Second: AGGAACATTTACGCCCCACACACCTACCAACAAAAA [CACACA_site3827]
The “gcPBM binding intensity (ln)” value of the first is higher: 8.99 for the first, 6.75 for the second.

Going from “TTTGGTAAGCGTGTCGCATGTAGAACAAGTCTACAT [TGCATGCA_site577]” to “AATAGGTGCCTTTTTTCACACACATGTCAACTAAAT [CACACA_site8846]”, the “gcPBM binding intensity (ln)” value rises from 6.08 to 6.6.

First: ATGAAATTATTATATAAACACACATTTATTTTATTT [CACACA_site8597]
Second: TAAAATTAAATGAAATCATTATTCATTTTTATTTTA [CACACA_negctrl_site1281]
The “gcPBM binding intensity (ln)” value of the first is higher: 6.28 for the first, 5.67 for the second.

First: ATTCTTTTTTTTTTCTTATATTCTAATCACCACCTT [XGTACX_negctrl_site179]
Second: CATATAAATAAACACACACACACATATATATATATA [CACACA_site5309]
The “gcPBM binding intensity (ln)” value of the first is lower: 6.63 for the first, 9.27 for the second.

Compared with “ACCCTTCAATTTAATTGTACAAGAAAAAAAAAAAAA [XGTACX_site2927]”, “AAATAATCATAAAATAAACACACATATATAAATATA [CACACA_site7981]” is higher in “gcPBM binding intensity (ln)” value: 6.41 for the first, 6.51 for the second.

Going from “TGCTCAAACTTTACAAATGAACGAATATAAAAAAAG [CACACA_negctrl_site541]” to “TTACAAAAAGGTAATTTACACACTGCATATAGGAAT [CACACA_site8956]”, the “gcPBM binding intensity (ln)” value rises from 6.83 to 7.

Compared with “TCTTAATATGGTAATACACACTAATATACTTTTGTT [CACACA_site4969]”, “GTTAATTTAATTATATGTACGAAAAAATACGTTATA [XGTACX_site1306]” is lower in “gcPBM binding intensity (ln)” value: 6.59 for the first, 6.16 for the second.

Compared with “TTTTTATTTTTTTATTTCTTATCAAATAAAATATAT [XGTACX_negctrl_site537]”, “AATATTTTGTTATTTATTTAATCTAATATTACTATC [CACACA_negctrl_site4]” is lower in “gcPBM binding intensity (ln)” value: 6.22 for the first, 6.03 for the second.

Going from “ATATATATATAAATATGTACATATATACATATATAC [XGTACX_site2374]” to “TAGGAAAATTACAAAAGTACTTGGCACATAATAATG [XGTACX_site6005]”, the “gcPBM binding intensity (ln)” value falls from 8.44 to 6.64.

Compared with “ATTATAGAATATTGAAGTACAAAATTTAAAATAAGT [XGTACX_site1468]”, “AAAAAAAAAAAATACACACAAACACAAATTAAATAA [CACACA_site3809]” is higher in “gcPBM binding intensity (ln)” value: 6.45 for the first, 6.65 for the second.

Compared with “TAATTTATCCTATAATGTACTTATAAAATATATCAT [XGTACX_site1460]”, “ATTCAGAGTATATAAAAATTAATATATACATAATAT [CACACA_negctrl_site1782]” is higher in “gcPBM binding intensity (ln)” value: 6.3 for the first, 6.46 for the second.

First: AGTCCATTTTATTATTGTACATATTAATTTATATCA [XGTACX_site672]
Second: ATGTACATAAACCGCACACATATAAAAAAATAAATA [CACACA_site5571]
The “gcPBM binding intensity (ln)” value of the first is higher: 7.11 for the first, 6.77 for the second.

Going from “TAGATATTTTTGAAAAGTACAAATTTTTAAAAATTA [XGTACX_site4420]” to “TTATATAATGACAAAAAAAAAAAAAAAAAAAAAAAA [CACACA_negctrl_site1467]”, the “gcPBM binding intensity (ln)” value rises from 6.05 to 6.21.

Going from “GTATGATTACAAGAAAGTAGTCCACTTTAACAACAA [CACACA_negctrl_site1304]” to “TATTTTGTCATAGAACGTACTTATAAATATTTTTTT [XGTACX_site8424]”, the “gcPBM binding intensity (ln)” value falls from 6.49 to 6.48.

Compared with “ATAGAAGCTGTTGACGAAGAAAAAAAAAAAAAAAAA [CACACA_negctrl_site110]”, “ATCAAATTATAATCATGTACAAATAAAAAAAAAAAA [XGTACX_site313]” is lower in “gcPBM binding intensity (ln)” value: 6.54 for the first, 6.3 for the second.

Compared with “AGAAAAAAAAAAAAAAAACACACGGTACATCCAAAG [CACACA_site124]”, “AAATATCTACAAATATGTACATATTTTTTTTGGCTT [XGTACX_site6301]” is higher in “gcPBM binding intensity (ln)” value: 6.15 for the first, 6.49 for the second.

First: TATATATATATATATGCACACATTTATACAATTTTA [CACACA_site2986]
Second: ATCATATCCACCAAATGAATAATATAAAATAATATA [XGTACX_negctrl_site193]
The “gcPBM binding intensity (ln)” value of the first is higher: 10.2 for the first, 6.49 for the second.

Compared with “AAATAACATAATAAGGGTACATTAATTTCGATAATG [XGTACX_site835]”, “TATACTTCTTATTAAATGAGTAGTATATATTATATA [TGCATGCA_negctrl_site299]” is lower in “gcPBM binding intensity (ln)” value: 6.19 for the first, 6.04 for the second.

Going from “CTATTTCATAAACACACACACACAAACAAACATATA [CACACA_site8234]” to “CTAAAATACGAACACACACACACATATAAATAAATA [CACACA_site7872]”, the “gcPBM binding intensity (ln)” value falls from 7.16 to 6.83.

Compared with “AAAGATTGCGATGGTTGTACTTTTCTATATTTTTTT [XGTACX_site3492]”, “TTTTTTTCTTTTTGAGGTACGCATTATTTTATTTGT [XGTACX_site6996]” is lower in “gcPBM binding intensity (ln)” value: 6.54 for the first, 5.99 for the second.

Going from “ATAATTTGATGGTTAACACACATATAGATTATAGAT [CACACA_site7200]” to “ACAAAGTTTATAGAACGTACATACTTACACATATTT [XGTACX_site556]”, the “gcPBM binding intensity (ln)” value rises from 6.41 to 6.52.

Going from “AAACAATTACACATATGTATGTATATATATATATAT [TGCATGCA_negctrl_site536]” to “AAAAAAATGAAACACACACACACATATATATATATA [CACACA_site1043]”, the “gcPBM binding intensity (ln)” value rises from 9.16 to 9.32.

Compared with “TGTTATATTTCAAATTGTACTAATCTAATTAATAAA [XGTACX_site604]”, “TTATTATATATATCTCGTACGTGTATACGCCTACCA [XGTACX_site8375]” is higher in “gcPBM binding intensity (ln)” value: 6.07 for the first, 6.95 for the second.

Going from “AAGTAGTGTTAATACTGTACTTATATTTTTTATTAT [XGTACX_site8264]” to “TTGATATTTTTTTTATGTACACATGTTCATATTTTT [XGTACX_site8095]”, the “gcPBM binding intensity (ln)” value rises from 5.96 to 6.65.

Compared with “ATTTAAAAAAGAAAGGTGCATTTCAATAATGTAAAA [GTGCAC_site9585]”, “TCATCTTTTATATGTTGTACGTATTTTCATTTATAT [XGTACX_site4855]” is lower in “gcPBM binding intensity (ln)” value: 8.13 for the first, 6.83 for the second.

Going from “TCACATATTATCTTTACACACTATAAATAAGTTTTA [CACACA_site7335]” to “AAATTAAAAAAGAATATACACACCAAAACTGTTTGT [CACACA_site958]”, the “gcPBM binding intensity (ln)” value falls from 6.71 to 6.26.

Compared with “TAAAAAAAGGAAAACATACAATTCTATTTTTCAATA [CACACA_negctrl_site474]”, “TAATTTTAAATATCTTCACACATTATATTTTTATAT [CACACA_site5411]” is higher in “gcPBM binding intensity (ln)” value: 6.05 for the first, 6.29 for the second.

Compared with “ACCATACATACATACACACACACACGCATATTTATA [CACACA_site7386]”, “TATATAAATAGATACACACATACATACATACATACA [CACACA_site260]” is lower in “gcPBM binding intensity (ln)” value: 7.61 for the first, 7.37 for the second.

First: TATAATAATACTTATTGTACGATTAGCTTAATTCGT [XGTACX_site15]
Second: ATGGAATTTTTAGAATATGGATAATGTTACTTAAGT [CACACA_negctrl_site494]
The “gcPBM binding intensity (ln)” value of the first is higher: 6.2 for the first, 6.05 for the second.

First: TATATCGTTAATTATACACACATAAAATTAAACTTT [CACACA_site1274]
Second: GTTATATATATATATATATATATATATATTTTTTTT [GTGCAC_negctrl_site597]
The “gcPBM binding intensity (ln)” value of the first is lower: 6.84 for the first, 7.26 for the second.

Compared with “AAAAACCATGGGCACACACACATAATATATAATATA [CACACA_site1425]”, “AAGTACAAATTTAATAAAAATGAAACAAATATGTAT [TGCATGCA_negctrl_site94]” is lower in “gcPBM binding intensity (ln)” value: 6.83 for the first, 6.17 for the second.

First: AAGGTGGAAACAATTACACACACACTAATAAAAAAA [CACACA_site9051]
Second: AAGGGTTATTTGATATGTACTTATATATATATATAA [XGTACX_site1659]
The “gcPBM binding intensity (ln)” value of the first is higher: 6.85 for the first, 6.57 for the second.

First: TTTTTTAAAAGAAAATAAAAAATAAGCATAATATGA [CACACA_negctrl_site1574]
Second: TATTAATTAAAAAAATGTACATAATTATAAATTTTT [XGTACX_site7994]
The “gcPBM binding intensity (ln)” value of the first is higher: 6.53 for the first, 6.28 for the second.

Going from “TACGGTTGTTTATTTTGTACGTAAAAAATATATTAT [XGTACX_site8393]” to “TAATATACATATATATGTACATATATATATATATAT [XGTACX_site2684]”, the “gcPBM binding intensity (ln)” value rises from 6.72 to 9.3.

Going from “TTCCAAAAAATTATTACACACATATGAGCACATATA [CACACA_site4543]” to “AAGAGAAATATATATTGTACAATAATTTTATTTGGT [XGTACX_site7642]”, the “gcPBM binding intensity (ln)” value falls from 9.16 to 6.21.

First: ATATCCATAATAAAAACATGCAACAGAAAAAAAAAA [TGCATGCA_site497]
Second: TATATATTAATATTTACACACATGCGCACCCATAAA [CACACA_site2410]
The “gcPBM binding intensity (ln)” value of the first is lower: 6.81 for the first, 7.51 for the second.

Compared with “AACAATTATTTGTCGACACACGTATATGTTATTTAG [CACACA_site5046]”, “ACCGTGGGAGGACACACACACACACCCACATATATA [CACACA_site4339]” is lower in “gcPBM binding intensity (ln)” value: 6.74 for the first, 6.38 for the second.

Compared with “ATTTTTGTTATTACATGTACCCATAATTATTATTAA [XGTACX_site3558]”, “TATTTATATTCCTTTACACACTCCATCTTATATCCA [CACACA_site3604]” is lower in “gcPBM binding intensity (ln)” value: 7.28 for the first, 7.1 for the second.

Compared with “ACAAAAAAATGAAAAGAAAAAGATATACCCCAATAT [CACACA_negctrl_site509]”, “AATTTAAATATTTGTTGTACGTATTTATATATTCTT [XGTACX_site3623]” is lower in “gcPBM binding intensity (ln)” value: 7.26 for the first, 6.53 for the second.

First: AATATATAAACACGTACACACACATATATGTATATA [CACACA_site9168]
Second: ATAATATATAAACACACACACATATATAAATACATT [CACACA_site4466]
The “gcPBM binding intensity (ln)” value of the first is higher: 6.97 for the first, 6.71 for the second.

With “CATGCCGTTAAATTATGTACTTATTATTTTAATATG [XGTACX_site4209]” the “gcPBM binding intensity (ln)” value was 6.32.
